{"source": "paper PMC4336329", "about": "(PLoS ONE, 2015)", "note": "The whole screen tested about 310,000 compounds, of which about 2,200 (0.71%) showed an effect of 50% or more. The effect is printed as a negative number. The list shows a part of the results."}
{"target": "human ether-à-go-go-related gene (hERG) potassium channel (human, UniProt Q12809)", "sequence (Q12809 whole entry, looked up)": "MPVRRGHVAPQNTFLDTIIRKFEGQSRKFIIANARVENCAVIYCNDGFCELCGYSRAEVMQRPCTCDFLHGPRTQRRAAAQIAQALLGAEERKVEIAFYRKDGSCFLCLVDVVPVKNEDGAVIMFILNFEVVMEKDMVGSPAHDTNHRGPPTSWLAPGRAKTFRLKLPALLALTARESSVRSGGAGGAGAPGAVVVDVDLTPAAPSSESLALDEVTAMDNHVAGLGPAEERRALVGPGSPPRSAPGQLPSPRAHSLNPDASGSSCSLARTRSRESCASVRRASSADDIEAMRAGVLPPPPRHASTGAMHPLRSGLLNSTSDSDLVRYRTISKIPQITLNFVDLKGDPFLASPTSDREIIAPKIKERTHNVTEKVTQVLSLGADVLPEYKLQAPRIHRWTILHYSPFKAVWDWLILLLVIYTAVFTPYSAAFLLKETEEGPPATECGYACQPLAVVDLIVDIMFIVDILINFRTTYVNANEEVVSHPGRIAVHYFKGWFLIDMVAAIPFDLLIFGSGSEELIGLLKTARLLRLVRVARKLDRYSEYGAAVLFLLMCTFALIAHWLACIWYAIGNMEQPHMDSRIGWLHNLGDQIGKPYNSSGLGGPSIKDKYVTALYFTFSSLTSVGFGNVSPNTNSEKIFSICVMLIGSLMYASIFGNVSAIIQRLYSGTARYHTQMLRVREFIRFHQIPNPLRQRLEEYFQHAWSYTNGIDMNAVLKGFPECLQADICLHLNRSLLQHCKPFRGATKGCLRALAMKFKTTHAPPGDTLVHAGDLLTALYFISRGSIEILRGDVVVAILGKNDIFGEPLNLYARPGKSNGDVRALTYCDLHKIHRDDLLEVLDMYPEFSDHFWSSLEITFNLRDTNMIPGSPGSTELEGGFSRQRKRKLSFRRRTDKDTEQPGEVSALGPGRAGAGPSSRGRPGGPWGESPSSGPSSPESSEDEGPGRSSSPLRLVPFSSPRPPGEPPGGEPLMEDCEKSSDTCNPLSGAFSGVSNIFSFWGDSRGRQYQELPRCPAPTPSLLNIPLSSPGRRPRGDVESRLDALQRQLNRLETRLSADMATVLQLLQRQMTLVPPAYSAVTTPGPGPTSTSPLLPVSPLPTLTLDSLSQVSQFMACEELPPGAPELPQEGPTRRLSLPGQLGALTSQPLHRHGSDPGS", "assay": "primary screen, population patch clamp on CHO cells stably expressing hERG", "units": {"hERG current change (%, negative = inhibition) at 1uM": "%"}}
{"smiles": "COc1ccc(F)cc1CN1CCN(C(=O)CCC(=O)Nc2nnc(C3CCCCC3)s2)CC1", "hERG current change (%, negative = inhibition) at 1uM": 15.7}
{"smiles": "O=C1CC(c2ccccc2)CC(O)=C1C=NCc1ccc(Cl)c(Cl)c1", "note": "(centres unmarked)", "hERG current change (%, negative = inhibition) at 1uM": 7.52}
{"smiles": "Cc1ccc(C(=O)Nc2ccc3c(c2)OCO3)cc1NC(=O)c1ccco1", "hERG current change (%, negative = inhibition) at 1uM": 5.58}
{"smiles": "COc1cccc(N=C2SC(C(=O)Nc3ccc(F)cc3)CC(=O)N2C)c1", "note": "(centres unmarked)", "hERG current change (%, negative = inhibition) at 1uM": 4.9}
{"smiles": "O=C(NC(=S)Nc1ccc(N2CCOCC2)c(Cl)c1)c1sc2ccccc2c1Cl", "hERG current change (%, negative = inhibition) at 1uM": 4.59}
{"smiles": "Cc1cccc(C(=O)NCc2nnc(SCC(=O)Nc3nnc(C)s3)n2C)c1", "hERG current change (%, negative = inhibition) at 1uM": 7.66}
{"smiles": "OCC1(CCCc2ccccc2)CCN(Cc2ccc(F)cc2)CC1", "hERG current change (%, negative = inhibition) at 1uM": -25.3}
{"smiles": "Cc1ccc(C2NC(=O)c3c(sc4c3CCN(C)C4)N2)o1", "note": "(centres unmarked)", "hERG current change (%, negative = inhibition) at 1uM": 1}
{"smiles": "COc1cccc(C(=O)Nc2cccc(-c3ccccc3)c2)c1", "hERG current change (%, negative = inhibition) at 1uM": 17}
{"smiles": "O=C(COC(=O)c1cncc(Br)c1)NCc1ccc2c(c1)OCO2", "hERG current change (%, negative = inhibition) at 1uM": 13.6}
{"smiles": "Cc1ccc(NC(=O)c2ccc(-c3nn(C)c(=O)c4ccccc34)cc2)c(C)c1", "hERG current change (%, negative = inhibition) at 1uM": -3.98}
{"smiles": "C[n+]1ccccc1N1CCN(c2ccccc2Cl)CC1.[I-]", "hERG current change (%, negative = inhibition) at 1uM": 5.98}
{"smiles": "O=C(OCC(=O)N1CCCC1)c1cncc(Br)c1", "hERG current change (%, negative = inhibition) at 1uM": 17.2}
{"smiles": "N#Cc1c(NC(=O)C2CC(c3ccccc3O)=NO2)sc2c1CCC2", "note": "(centres unmarked)", "hERG current change (%, negative = inhibition) at 1uM": 3.85}
{"smiles": "O=C(NCc1ccccn1)c1cc(-c2ccc(Cl)cc2)nc2ccccc12", "hERG current change (%, negative = inhibition) at 1uM": 3.18}
{"smiles": "COC(=O)Nc1ccc(S(=O)(=O)NCc2ccccn2)cc1", "hERG current change (%, negative = inhibition) at 1uM": 3.89}
{"smiles": "CCCN1CCC(NC23CC4CC(CC(C4)C2)C3)CC1", "hERG current change (%, negative = inhibition) at 1uM": 18}
{"smiles": "CCC(Oc1ccc(C)cc1)C(=O)Nc1ccc(S(=O)(=O)Nc2nccs2)cc1", "note": "(centres unmarked)", "hERG current change (%, negative = inhibition) at 1uM": 10.4}
{"smiles": "O=C(O)CNC(=O)CCn1nnc2ccccc2c1=O", "hERG current change (%, negative = inhibition) at 1uM": 9.97}
{"smiles": "CCCCN(CC)Cc1ccc(CNC(=O)Nc2ccc(OCC)cc2)o1", "hERG current change (%, negative = inhibition) at 1uM": 0.485}
{"smiles": "CC(=O)Nc1ccc(C2=NN(c3ccccc3)C(c3cccs3)C2)cc1", "note": "(centres unmarked)", "hERG current change (%, negative = inhibition) at 1uM": 22.3}
{"smiles": "Nn1c(SCC(=O)Nc2ccc(F)cc2)nnc1-c1ccccn1", "hERG current change (%, negative = inhibition) at 1uM": -16.6}
{"smiles": "O=C(NCC1CC1)NC(=O)c1c(F)cccc1Cl", "hERG current change (%, negative = inhibition) at 1uM": 11.5}
{"smiles": "COc1ccc(S(=O)(=O)NCC2CCCN(Cc3ccccc3Cl)C2)cc1", "note": "(centres unmarked)", "hERG current change (%, negative = inhibition) at 1uM": 2.59}
{"smiles": "CCOc1ccc(NC(=O)C(C)Sc2nnc(C)n2C)cc1", "note": "(centres unmarked)", "hERG current change (%, negative = inhibition) at 1uM": -3.53}
{"smiles": "CC(=O)CCc1c(C)[nH]c2ccc(NC(C)=O)cc2c1=O", "hERG current change (%, negative = inhibition) at 1uM": 12}
{"smiles": "Cn1c(NC(=O)CC2CCCCC2)cc(=O)n(C)c1=O", "hERG current change (%, negative = inhibition) at 1uM": 6.29}
{"smiles": "Cc1cc(=O)c2cc(Br)ccc2[nH]1", "hERG current change (%, negative = inhibition) at 1uM": 11.2}
{"smiles": "C[N+](C)(CCOc1ccccc1)Cc1ccccc1.O=C(O)c1cc2ccccc2c(Br)c1[O-]", "hERG current change (%, negative = inhibition) at 1uM": 7.99}
{"smiles": "Cc1ccc(CN(C(=O)c2csnn2)C(C(=O)NC2CCCC2)c2ccc(C)o2)cc1", "note": "(centres unmarked)", "hERG current change (%, negative = inhibition) at 1uM": 4.17}
{"smiles": "O=C(Nc1ccc(C(=O)N2CCN(c3ccccc3)CC2)cc1)C1=CSCCO1", "hERG current change (%, negative = inhibition) at 1uM": 5.72}
{"smiles": "Cc1cccc(NC(=O)C2CCN(C(=O)[C@@H]3Cc4ccccc4CN3)CC2)c1", "hERG current change (%, negative = inhibition) at 1uM": -31.3}
{"smiles": "COc1ccc(Cc2nc3ccc(C(=O)NCCSC)cc3o2)cc1", "hERG current change (%, negative = inhibition) at 1uM": 9.5}
{"smiles": "O=C(NCc1ccc(F)cc1)c1cccc(NC2=NC3CS(=O)(=O)CC3S2)c1", "note": "(centres unmarked)", "hERG current change (%, negative = inhibition) at 1uM": 0.746}
{"smiles": "COc1ccc(-c2nc3c(c(=O)n(C)c(=O)n3C)n2CC2CC(c3ccccc3)=NO2)cc1OC", "note": "(centres unmarked)", "hERG current change (%, negative = inhibition) at 1uM": 8.48}
{"smiles": "O=C(Nc1ccccc1)N(C1=NCCC1)c1ccc(OC(F)F)cc1", "hERG current change (%, negative = inhibition) at 1uM": 1.35}
{"smiles": "Cc1ccc(C)c(CN2C(=O)C3CCCN3c3ccc(S(=O)(=O)N4CCOCC4)cc32)c1", "note": "(centres unmarked)", "hERG current change (%, negative = inhibition) at 1uM": 16}
{"smiles": "Cc1ccccc1S(=O)(=O)Cc1ccc(C(=O)NC2CC2)o1", "hERG current change (%, negative = inhibition) at 1uM": 16.2}
{"smiles": "COc1ccc2[nH]cc(CCNS(=O)(=O)c3ccc(NC(C)=O)cc3)c2c1", "hERG current change (%, negative = inhibition) at 1uM": 10.1}
{"smiles": "CNC(=S)N1CCn2cccc2C1c1cc(OC)c(OC)c(OC)c1", "note": "(centres unmarked)", "hERG current change (%, negative = inhibition) at 1uM": 11.1}
{"smiles": "CCCOc1ccc(-c2nc(N3CCN(CC)CC3)c3ccccc3n2)cc1", "hERG current change (%, negative = inhibition) at 1uM": 11.2}
{"smiles": "CCCCn1c(=O)[nH]c(=O)c2c1nc(-c1ccc(C(F)(F)F)cc1)n2C", "hERG current change (%, negative = inhibition) at 1uM": 2.7}
{"smiles": "Cc1cccc(C(=O)NNC(=O)c2ccccc2[N+](=O)[O-])c1", "hERG current change (%, negative = inhibition) at 1uM": 10.7}
{"smiles": "CC(=O)OCc1cc(=O)n(C)c(=O)n1C", "hERG current change (%, negative = inhibition) at 1uM": 16.3}
